Assay results from PubChem BioAssay AID1346428 (National Center for Advancing Translational Sciences (NCATS), 2018).
Among all 48,000 compounds or so, about 1,200 (2.5%) were called active. Roughly 2% stayed inconclusive and do not appear here.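 The calls were made as follows: active = activation of at least 60% and not above a set upper limit (about 1 call in 100 departs from these limits); inconclusive = activation of 40% to 60%, or above that upper limit; inactive = activation under 40%.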 Some of the results follow.

Target: Probable G-protein coupled receptor 32 (Homo sapiens) (UniProt O75388)
Chain of UniProt O75388 (O75388 whole entry, looked up): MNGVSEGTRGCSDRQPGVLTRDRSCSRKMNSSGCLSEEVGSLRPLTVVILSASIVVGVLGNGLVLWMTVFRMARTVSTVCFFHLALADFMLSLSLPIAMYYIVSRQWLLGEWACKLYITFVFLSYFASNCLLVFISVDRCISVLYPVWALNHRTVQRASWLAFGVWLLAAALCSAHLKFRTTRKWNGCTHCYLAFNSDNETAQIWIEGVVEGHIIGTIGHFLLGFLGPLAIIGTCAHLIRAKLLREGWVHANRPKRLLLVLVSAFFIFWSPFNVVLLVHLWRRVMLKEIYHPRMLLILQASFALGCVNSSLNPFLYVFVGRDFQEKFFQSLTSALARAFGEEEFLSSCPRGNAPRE
Test: qHTS for Agonists of Human Resolvin D1 Receptor DRV1; also: 0% is about no effect
Conditions: CHO-K1 GPR32 beta-arrestin PathHunter luminescence, 90 min; at 76.9 µM; stronger effect = higher value; zero percent set by DMSO-only wells
How it was run: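 PathHunter beta-arrestin recruitment in CHO-K1 cells stably expressing ProLink-tagged GPR32. Cells were exposed to compound for 90 min at 37 C, then chemiluminescence was read after 1 h detection at ambient temperature; DMSO served as basal control.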

Row | SMILES | activation
1 | CCN(C(=O)CSc1nc2ccccc2nc1Cc1ccccc1OC)c1ccccc1 | inactive: -6.74%
2 | CC(C(=O)NCc1ccccc1)n1ccc2cc(S(=O)(=O)N3CCCC3)ccc21 (stereo not drawn) | inactive: 5.29%
3 | CCOc1ccccc1CNC(=O)CCc1cn(C)c2ccccc12 | inactive: -16.9%
4 | CCSC1=NC2(CCN(C(=O)NC3CCCCC3)CC2)N=C1c1ccc(OC)cc1 | inactive: 15.4%
5 | Cc1nc(CC(=O)Nc2ccc(C(N)=O)cc2)cs1 | inactive: -6.12%
6 | Cc1ccc(C(=O)CC2(O)C(=O)N(CCc3ccccc3)c3ccc(Br)cc32)cc1 (stereo not drawn) | inactive: -6.68%
7 | CCOCCCNC(=O)C(c1ccc(OC)cc1)N(Cc1cccs1)C(=O)CNC(C)=O (stereo not drawn) | inactive: -10.7%
8 | CC(=O)Nc1ccc(S(=O)(=O)NC2(C(F)(F)F)C(=O)Nc3c2c(=O)[nH]c(=O)n3-c2ccc(C)cc2)cc1 (stereo not drawn) | inactive: -5.44%
9 | CCc1cccc(NC(=O)CN2C(=O)COc3ccc(S(=O)(=O)N4CCC(C)CC4)cc32)c1 | inactive: -30.4%
10 | COc1ccc(NC(=O)Cn2c(=O)n(Cc3ccccc3Cl)c(=O)c3cc(OC)c(OC)cc32)cc1 | inactive: 16.4%
11 | CCOC(=O)c1cc2c(=O)n3ccccc3nc2n(CCCOC)c1=NC(=O)c1cc2ccccc2o1 | inactive: 5.07%
12 | O=c1oc2ccc(Cl)cc2cc1-c1nc(-c2cccs2)no1 | inactive: -0.299%
13 | COc1cccc(-n2c(C)nc3c(cnn3-c3ccc(C)c(C)c3)c2=O)c1 | inactive: 16.6%
14 | Cc1ccc(Cn2c(C)c3cnn(CC(=O)N4CCN(c5cc(C)ccc5C)CC4)c(=O)c3c2C)cc1 | inactive: -2.68%
15 | Cc1ccc(CCNC(=O)c2cc3ccccn3n2)cc1 | active: 111%
16 | Cc1ccc(NC(=O)C2CCC(CNS(=O)(=O)c3cccs3)CC2)cc1C (stereo not drawn) | inactive: 2.33%
17 | CCC(=O)N1c2ccc(S(=O)(=O)CCC(=O)NCc3ccc(OC)cc3)cc2CC1C (stereo not drawn) | inactive: 10.8%
18 | CCOC(=O)C1CCN(C(=O)c2ccc(C)c(NC(=O)c3nsc4ccccc34)c2)CC1 | inactive: -22.6%
19 | O=C(Cn1c(=O)c2ccccc2n(CC(=O)Nc2ccccc2F)c1=O)NCCc1ccccc1 | inactive: -4.35%
20 | Cc1cc(C)c(S(=O)(=O)NCC(c2ccco2)S(=O)(=O)c2ccccc2)c(C)c1 (stereo not drawn) | inactive: -7.46%
21 | O=S(=O)(Nc1ccc(OC(F)(F)F)cc1)c1ccc(N2CCCCS2(=O)=O)cc1 | inactive: -9.11%

Row | SMILES | activation
22 | CCc1cccc(C)c1Nc1c(-c2cccs2)nc2ncccn12 | inactive: -24%
23 | CC(C)c1ccc(S(=O)(=O)NCc2nc3cccnc3n2Cc2ccc(F)cc2)cc1 | inactive: -18.9%
24 | CC1=C(C(=O)Nc2cc(C)cc(C)c2)C2(CCCCC2)OC1=O | inactive: -12.5%
25 | O=C(Nc1ccc(F)c(F)c1)c1ccc(=O)n(Cc2ccc(F)cc2)c1 | inactive: 31.8%
26 | COc1ccc(NC(=O)COCc2cc(-c3ccco3)on2)cc1Cl | inactive: -17.3%
27 | COc1ccc(CCNC(=O)CCc2c(C)c3ccc(O)c(C)c3oc2=O)cc1 | inactive: 36.2%
28 | Cc1nc2nc(CNC(=O)OC(C)(C)C)nn2c(C)c1CCC(=O)NCc1ccccc1Cl | inactive: -4.86%
29 | CCc1ccc(-n2c(=O)c3sc4ccccc4c3n(CC(=O)NC3CCCC3)c2=O)cc1 | inactive: 12.4%
30 | COc1cc(OC)c(NC(=O)CCc2nc(C3=CCN(Cc4cccc(Cl)c4)CC3)no2)cc1Cl | inactive: -3.03%
31 | Nc1nc(N)c(S(=O)(=O)c2ccccc2)c(Nc2ccccc2)n1 | inactive: 23.3%
32 | COc1cccc(C2C(=O)N(C3CCCCC3)CC(=O)N2CCc2ccc(OC)c(OC)c2)c1 (stereo not drawn) | inactive: -13%
33 | CCc1ccc2c(c1)c(=O)c(S(=O)(=O)c1ccc(F)cc1)cn2CC(=O)Nc1ccccc1OC | inactive: -12.6%
34 | Cc1ccc(NC(=O)c2oc3ccccc3c2NC(=O)C2CCCCC2)cc1 | inactive: -4.5%
35 | COc1ccc(-c2cc(C(=O)Oc3ccc(Br)cc3)c3ccccc3n2)cc1 | inactive: -20%
36 | COc1ccc(Br)cc1CNCc1c(C(=O)O)c(C)n(Cc2ccccc2C)c1C | inactive: -2.06%
37 | c1ccc2c(c1)CCc1ccccc1N2 | active: 119%
38 | CCOc1ccc(-c2cc3nc(C4CCN(C(=O)OC(C)(C)C)CC4)c(C(=O)Nc4cccc(C(F)(F)F)c4)cn3n2)cc1 | inactive: -6.05%
39 | Cc1nc2cccnc2n1-c1cccc(C(=O)NCc2cccc(Cl)c2)c1 | inactive: 8.86%
40 | CCCCCOC(=O)CSc1nc2sc3c(c2c(=O)n1Cc1ccccc1)CC(C)(CC)OC3 (stereo not drawn) | inactive: -14.8%
41 | CCS(=O)(=O)N1CC(=O)N(c2cc(Cl)ccc2C)C(C)(C(=O)NC2CCCCCC2)C1 (stereo not drawn) | inactive: 12.6%
42 | Cc1cc2c(cc1S(=O)(=O)CCC(=O)N1CCN(c3ccccc3)CC1)OCC(=O)N2 | inactive: -10.2%

Row | SMILES | activation
43 | Cc1ccc(-n2c(=O)c3c4c(sc3n(CC(=O)C(C)(C)C)c2=O)CCCCC4)cc1C | inactive: -2.52%
44 | COc1cc(Cl)c(NS(=O)(=O)c2cc3[nH]c(=O)c(=O)[nH]c3cc2C)c(OC)c1 | inactive: -12.3%
45 | COc1cccc(C(=O)NC2=NC(c3ccccc3F)CC(=O)N2)c1 (stereo not drawn) | inactive: -18.9%
46 | CC(C)NCC(O)COc1ccc(CC(N)=O)cc1 (stereo not drawn) | inactive: 0.239%
47 | COc1ccc(-c2nc3scc(CCNS(=O)(=O)c4cccs4)n3n2)cc1 | inactive: 19.9%
48 | COc1ccc(CNC(=O)CCc2c(C)nn(-c3ccc(N4CCCC4)nn3)c2C)cc1 | inactive: -8.15%
49 | CCOC(=O)Cc1ccc(NC(=O)Nc2nnc(N3CCCCC3C)s2)cc1 (stereo not drawn) | inactive: 25%
50 | O=C(Nc1ccc2c(c1)CCCN2C(=O)c1cccs1)c1ccccc1C(F)(F)F | inactive: -14.6%
51 | COC(=O)c1ccc(NC(=O)c2c(-c3ccccc3)c(-c3ccccc3)nn(C)c2=O)cc1 | inactive: -16.7%
52 | CCC(=O)N1CCc2cc(Br)cc(S(=O)(=O)NCCc3ccc(C)cc3)c21 | inactive: -6.19%
53 | CCCN(C(=O)c1cc2c(s1)-c1ccccc1OC2)c1ccc(C(C)C)cc1 | inactive: -3.02%
54 | Cc1cccc(OC(=O)c2snnc2C)c1C | inactive: -0.268%
55 | CCOC(=O)c1ccc(NC(=O)Nc2cc3c(cc2N2CCCCC2)n(CC)c(=O)n3CC)cc1 | inactive: -9.45%
56 | CCc1ccc(Nc2nc(-c3cc4cccc(OC)c4oc3=O)c(CC)s2)cc1 | inactive: -35.2%
57 | COc1ccc(NC(=O)c2c(C)oc3ccc(O)c(CN4CCN(C)CC4)c23)cc1Cl | inactive: 20.1%
58 | O=C(Nc1c(C(=O)N2CCN(c3ccc(F)cc3)CC2)oc2ccccc12)c1ccco1 | inactive: -24.1%
59 | Cc1ccc(-c2nnc(Nc3ccc(C(N)=O)cc3)c3ccccc23)cc1S(=O)(=O)N1CCCCC1 | inactive: -5.71%
60 | CCOC(=O)C1CCCN(CCC(=O)Nc2ccc(OC)cc2OC)C1 (stereo not drawn) | inactive: -9.62%
61 | COc1cccc(N2CCN(S(=O)(=O)c3ccc(-c4cnc(C5CC5)o4)cc3)CC2)c1 | inactive: 9.72%
62 | COc1ccc(CCNC(=O)c2ccc(CS(=O)(=O)c3ccc(C)cc3)o2)cc1OC | inactive: 34.9%
63 | CCCc1nn2c(=O)cc(COC(=O)c3ccc(NC(=O)c4cccs4)cc3)nc2s1 | inactive: -23.3%

Row | SMILES | activation
64 | CCc1ccc(NC(=O)CSC2=Nc3ccccc3C3=NC(CCC(=O)NCc4cccs4)C(=O)N23)cc1 (stereo not drawn) | inactive: -28.5%
65 | O=C(CSc1nc2ccccc2n1Cc1ccc(F)c(Cl)c1)N1CCN(c2ccc(F)cc2)CC1 | inactive: -2.46%
66 | Cc1cccc(-n2ccnc2SCC(=O)Nc2ccccc2C(F)(F)F)c1 | inactive: -8.26%
67 | CCn1cc(C(=O)NCCc2ccccc2)c(=O)c2cc(S(=O)(=O)N3CCOCC3)ccc21 | inactive: -7.62%
68 | COc1ccc(CNC(=O)CCc2c(C)nc3c(c2C)c(=O)n(C)c(=O)n3C)cc1 | inactive: -8.46%
69 | CCC(=O)N1CCc2cc(S(=O)(=O)NC(C(=O)NCc3ccc(OC)cc3)C(C)C)ccc21 (stereo not drawn) | inactive: -4.99%
70 | Cc1ccc(Cn2c(C)c(CNC3CCCCC3)c(C(=O)O)c2C)cc1 | inactive: -9.59%
71 | COc1cc(CN2CCc3nc(Nc4ccc5c(c4)OCCO5)ncc3C2)cc(OC)c1OC | active: 96.6%
72 | CCOC(=O)c1cc2c(=O)n3ccccc3nc2n(Cc2ccco2)c1=NC(=O)c1cc(C)cc(C)c1 | inactive: -2.96%
73 | COC(=O)c1ccc(NC(=O)c2nn(C)c3c2CS(=O)(=O)c2ccccc2-3)cc1 | inactive: -4.99%
74 | CCc1ccccc1NC(=O)CC(c1ccc(F)cc1)N1Cc2ccccc2C1=O (stereo not drawn) | inactive: -23.9%
75 | COc1ccc(CCNc2nc3c(c(=O)n(C)c(=O)n3C)n2Cc2ccc(F)cc2)cc1OC | inactive: 7.95%
76 | COc1ccc(OC)c(CCNC(=O)CCCc2nnc3n(C)c(=O)c4sccc4n23)c1 | inactive: -0.994%
77 | COc1cccc(N2C(=O)CSC23C(=O)N(CC(=O)Nc2cc(C)ccc2C)c2ccccc23)c1 (stereo not drawn) | inactive: -7.39%
78 | CC1CCN(S(=O)(=O)c2ccc3nc(-c4cccnc4)cc(C(=O)NCCCOC(C)C)c3c2)CC1 | inactive: -8.91%
79 | COc1ccc2[nH]cc(CCNC(=O)Nc3ccccc3C)c2c1 | inactive: 7.42%
80 | CNCCc1cnc(CCC(c2ccccc2)c2ccccc2)[nH]1 | inactive: -4.89%
81 | Cc1ccc2sc(N3CCN(C(=O)C4COc5ccccc5O4)CC3)nc2c1C (stereo not drawn) | inactive: -6.8%
82 | COc1ccc(C)cc1NC(=O)CN1CCN(CC(=O)Nc2ccccc2F)CC1 | inactive: -9.94%
83 | Cc1cc(C)c(NC(=O)c2sc3nc(C)cc(C)c3c2N)c(C)c1 | inactive: 37.5%
